Measured values as given in PubChem BioAssay AID488969 (Vanderbilt High Throughput Screening Facility, 2010).
The full ranking holds about 110,000 compounds; the median of “z-score” is about -0.1, and the highest 2% start at about 2. The list shows a part of the results. Active and inactive are the calls of the source.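 Rule for the calls: active = z-score in the third read window above 3 or below -3; inactive = the rest.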

target: Metabotropic glutamate receptor 8 (Rattus norvegicus) (UniProt P70579); experiment: rat mGluR8 modulators via GIRK flux, primary screen, cell-based, thallium flux, HTS (AID 488969); settings: HEK293 rat mGluR8, GIRK (G protein-gated inwardly rectifying potassium channel) thallium flux, FluoZin2; at 10 µM; stronger effect = higher value; submaximal glutamate (EC20) added with thallium
UniProt P70579, sequence (P70579 whole entry, looked up): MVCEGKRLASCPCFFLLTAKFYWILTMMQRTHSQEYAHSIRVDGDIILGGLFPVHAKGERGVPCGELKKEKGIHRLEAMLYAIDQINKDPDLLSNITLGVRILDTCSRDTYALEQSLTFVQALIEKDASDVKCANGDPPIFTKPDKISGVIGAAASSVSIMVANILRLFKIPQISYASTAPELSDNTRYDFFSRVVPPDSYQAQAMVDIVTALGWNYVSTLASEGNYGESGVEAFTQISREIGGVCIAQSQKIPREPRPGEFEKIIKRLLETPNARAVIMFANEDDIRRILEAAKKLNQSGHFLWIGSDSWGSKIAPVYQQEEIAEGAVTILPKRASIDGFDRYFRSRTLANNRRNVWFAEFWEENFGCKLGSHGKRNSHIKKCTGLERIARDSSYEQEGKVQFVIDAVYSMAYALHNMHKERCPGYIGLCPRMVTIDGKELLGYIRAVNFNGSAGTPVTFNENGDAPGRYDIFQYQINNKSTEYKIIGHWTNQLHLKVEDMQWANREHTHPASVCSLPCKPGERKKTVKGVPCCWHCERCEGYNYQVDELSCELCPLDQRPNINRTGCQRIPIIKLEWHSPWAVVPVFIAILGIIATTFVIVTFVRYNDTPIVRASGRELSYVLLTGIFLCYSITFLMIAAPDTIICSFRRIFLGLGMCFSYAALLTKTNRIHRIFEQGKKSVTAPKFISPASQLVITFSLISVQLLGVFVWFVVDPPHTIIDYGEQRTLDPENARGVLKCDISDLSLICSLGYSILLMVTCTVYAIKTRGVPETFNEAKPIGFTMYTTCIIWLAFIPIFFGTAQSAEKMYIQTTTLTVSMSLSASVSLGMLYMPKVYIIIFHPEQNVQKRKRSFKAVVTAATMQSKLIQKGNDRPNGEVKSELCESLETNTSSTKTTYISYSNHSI

Row | Compound | z-score
1 | CCN(CC)S(=O)(=O)c1ccc(NC2c3ncccc3C(=O)N2Cc2ccccc2)cc1 (stereo not given) | 0.968
2 | COc1ccc(NS(=O)(=O)c2c(C)cc(C)cc2C)cc1 | 0.0676
3 | CCOC(=O)c1c(CN2CCOCC2)n(-c2ccccc2)c2cc(Br)c(OC)cc12 | -0.0513
4 | CSc1nc(SCCO)c2sc3nc(-c4ccco4)c4c(c3c2n1)CC(C)(C)OC4 | -0.485
5 | O=C(NCCC(=O)N1CCN(c2ncccn2)CC1)c1ccccc1Cl | -0.316
6 | COc1ccc(S(=O)(=O)N(C)CC(=O)N2CCCCC2)cc1Cl | 0.326
7 | O=C(c1ccc(C#CC2(O)CCCCC2)cc1)N1CCOCC1 | 0.153
8 | Cc1cc([N+](=O)[O-])cnc1NC(C)c1ccccc1 (stereo not given) | -0.349
9 | Cc1ccc(-c2nnc3c4ccccc4c(C)nn23)cc1S(=O)(=O)N1CCN(CCO)CC1 | -0.182
10 | Fc1ccc(C2CC(c3ccccc3)Nc3ncnn32)cc1 (stereo not given) | 0.0535
11 | COC(=O)C1=C(C)N(c2ccc(OC)cc2)C(=O)/C1=C\c1cccs1 | -0.311
12 | COCCNCC#CCOc1ccc(OC)cc1 | 0.23
13 | CSc1cccc(NS(=O)(=O)c2ccc3c(c2)oc(=O)n3C)c1 | -0.281
14 | O=C(CN(c1ccc(F)cc1)S(=O)(=O)c1ccc2c(c1)OCCO2)Nc1cccnc1 | -0.892
15 | Nc1nc(NC(=O)c2cccs2)nn1-c1ccccc1 | -0.291
16 | CCCn1nc(C(=O)Nc2nc3ccccc3[nH]2)c2ccccc2c1=O | -0.611
17 | Cc1ccc(S/C=C\C(=O)c2ccccc2)cc1 | -0.193
18 | CCCOc1ccc(C(=O)NC(=S)Nc2nc3ccc(C)cc3s2)cc1 | 0.077
19 | CCOC(=O)SC1=N/C(=C\c2ccc(N(C)C)cc2)C(=O)S1 | 0.292
20 | O=C1CC(NCCN2CCOCC2)C(=O)N1Cc1ccc(N2CCCC2=O)cc1 (stereo not given) | -0.398
21 | Cc1[nH]nc(Nc2ccccc2)c1[N+](=O)[O-] | 0.301
22 | COC(=O)C1=C(C)Nc2c(c(=O)n(C)c(=O)n2C)C1c1ccncc1 (stereo not given) | -0.211

Row | Compound | z-score
23 | COc1ccc(/C=c2\sc3nc(-c4ccccc4OC)nn3c2=O)c(OC)c1 | -0.0769
24 | COc1ccc(-c2noc(CN(C)S(=O)(=O)c3ccc(C)cc3)n2)cc1 | 0.0443
25 | CCOC(=O)C1=C(C)N(C)C(C)=C(C(=O)OCC)C1c1ccc(C(=O)OC)cc1 | -1.04
26 | O=C(NCCN1CCCCC1)c1ccco1 | 0.151
27 | COc1ccccc1-c1n[nH]c(=S)o1 | 0.0112
28 | CCn1c(SCc2nc(-c3ccccc3)no2)nnc1-c1cccs1 | 1.84
29 | CCC1OC2(C)OC(=N)C1(C#N)C(C#N)(C#N)C2c1ccccc1 (stereo not given) | 0.113
30 | CC(C)c1ccc(OC(=O)NCCO)cc1 | -0.0747
31 | CCCCN(C(=O)CN1C(=O)C2CC=CCC2C1=O)c1c(N)n(CCC)c(=O)[nH]c1=O (stereo not given) | 0.136
32 | CC1=C(C(=O)Nc2ccc(F)c(F)c2)C(c2cccs2)NC(=S)N1 (stereo not given) | 0.000835
33 | O=C(CN1CCCc2ccccc21)N/N=C/c1ccccc1O | 1.65
34 | COc1ccc(S(=O)(=O)NC(C(C)C)C(C)C)cc1OC | 0.101
35 | O=S(=O)(/N=C(/Nc1ccc(F)cc1F)c1ccccc1)c1ccccc1 | -0.416
36 | CCn1ncc(CNC(=O)c2cccc([N+](=O)[O-])c2)c1C | 0.262
37 | CCCNS(=O)(=O)c1ccc(OCC(=O)Nc2ccc3c(c2)OCCO3)cc1 | -0.104
38 | CCC(=O)Nc1nc2n(n1)C(c1ccc(OC)cc1)C=C(c1ccccc1)N2 (stereo not given) | -1.32
39 | CC(C)c1ccc(N2CCN(C(=O)c3ccccc3NC(=O)/C=C(\C(=O)O)c3ccccc3)CC2)cc1 | 0.109
40 | CC1CCC(NC(=O)c2ccc(S(C)(=O)=O)cc2)CC1 (stereo not given) | -0.338
41 | Cc1ccc(NC(=O)CS(=O)CC(=O)N(C2CCCC2)C(C)C(=O)NC2CCCCC2)cc1 (stereo not given) | 0.257
42 | CCN(CC)c1ncnc2ccc(Br)cc12 | -0.899
43 | CCOC(=O)c1cc2ccc(OC)c(OC)c2c(=O)s1 | -0.429
44 | Cc1cc(-c2ccccc2)nc(N2CCN(c3ccccn3)CC2)n1 | 0.785

Row | Compound | z-score
45 | C/C(=N\NC(=O)Cn1nc(C)c(Br)c1C)c1cccs1 | 0.0221
46 | O=C(CSc1nc(-c2ccccc2)nc2ccccc12)Nc1nccs1 | -0.148
47 | COc1ccc(Br)cc1CNC(=O)CCc1nc(-c2ccc(C)cc2)no1 | 0.0151
48 | Cc1ccc(NC(=S)N2CCN(C3CCCCC3)CC2)cc1 | -0.155
49 | Cc1cc(NCc2ccccn2)ccc1Br | -0.0909
50 | C=CCc1cc(Cl)ccc1OCCN(C)C | -0.0592
51 | COc1ccc2cc(CN(CC3CCCO3)S(=O)(=O)c3ccc(C(C)=O)cc3)c(=O)[nH]c2c1 (stereo not given) | -0.218
52 | Cc1cnc(NC(=O)C2COc3ccccc3O2)s1 (stereo not given) | 0.05
53 | Cc1noc(C)c1COC(=O)C1COc2ccccc2O1 (stereo not given) | -1.17
54 | Cc1ccnc2nc(C(=O)Nc3cc(Cl)ccc3N3CCOCC3)nn12 | -0.144
55 | CCCN1C(=O)/C(=C/c2cc(C)n(C)c2C)SC1=Nc1ccc(OCC)cc1 | -0.0737
56 | Cc1cc(Br)ccc1OCC(=O)NNC(=O)c1ccc(NC(=O)C2CC2)cc1 | 0.1
57 | CC(/C=C1\SC(=S)N(NC(=O)c2ccc(O)cc2)C1=O)=C\c1ccccc1 | 1.8
58 | O=C(/C=C/Nc1ccccc1C(=O)O)c1cccs1 | -0.746
59 | CCSc1nncn1/N=C/c1ccc(OC)c(OC)c1 | -0.193
60 | Cc1cccc(NC(=O)CS(=O)(=O)c2c[nH]c3ccccc23)c1C | 0.0768
61 | CCOC(=O)N1CCC(n2c(=S)[nH]c3ccccc3c2=O)CC1 | 0.582
62 | Cc1nn(CC(=O)Nc2cc(S(=O)(=O)N(C)C)ccc2Cl)c(C)c1[N+](=O)[O-] | 0.164
63 | COc1ccc(Cl)cc1S(=O)(=O)NCc1cccnc1 | -0.272
64 | COc1ccc(C(=O)NN2C(=O)C3C(c4ccccc4)C=CC(c4ccccc4)C3C2=O)cc1 (stereo not given) | 0.257
65 | CCC(SC1=N/C(=C/c2ccccc2)C(=O)N1c1ccccc1)C(=O)Nc1cc(C)on1 (stereo not given) | 0.368
66 | CCc1ccc(CC2S/C(=C(\C#N)C(C)=O)NC2=O)cc1 (stereo not given) | 0.0174

Row | Compound | z-score
67 | COCCCNC(=S)NC1CCCCC1 | -0.306
68 | Cc1cccc(-n2cnc3cc(C(=O)N4CCc5ccccc54)ccc32)c1 | -0.779
69 | Cn1cccc1/C=N/n1c(-c2ccc(Cl)cc2Cl)n[nH]c1=S | 2.46
70 | CC(=O)c1ccc(N2CCN(C(=S)Nc3cc(C)ccc3C)CC2)cc1 | -0.28
71 | O=C(N/N=C/c1cccc([N+](=O)[O-])c1)C1CC(=O)N(c2ccc(Cl)cc2)C1 (stereo not given) | -0.21
72 | COc1ccc(S(=O)(=O)N(CCc2ccccc2)CC(=O)O)cc1 | 2.73
73 | O=C(CS(=O)(=O)c1cccc(C(F)(F)F)c1)Nc1ccccc1Cl | -0.0983
74 | COc1ccc(N2CCC(CNC(=O)Nc3ccc(OC)cc3OC)C2)cc1 (stereo not given) | -0.293
75 | COc1ccc(C=O)cc1OS(=O)(=O)c1ccccc1[N+](=O)[O-] | -1.43
76 | COc1cc(C(=O)CCN2CCC(c3ccccc3)C2)cc(OC)c1OC (stereo not given) | 0.0939
77 | CCOc1cc(/C=C2\N=C(SCC)SC2=O)cc([N+](=O)[O-])c1OC(C)=O | 1.03
78 | O=C(Nc1c2c(nc3ccccc13)CCCC2)c1ccccc1Br | 0.168
79 | COc1ccc(-c2nn(-c3ccccc3)cc2C(=O)O)cc1 | 0.313
80 | Cc1cc2cc(CN(CC3CCCO3)C(=S)NCc3ccco3)c(=O)[nH]c2cc1C (stereo not given) | -0.0378
81 | CCc1ccc(S(=O)(=O)NCc2cn3ccccc3n2)s1 | 0.184
82 | O=c1oc(Nc2ccccc2F)nc2ccccc12 | -0.476
83 | CN(C)CCNC(=O)CNC(=S)N(Cc1ccccc1)Cc1cccnc1 | 0.013
84 | O=C(CN(c1ccccc1)S(=O)(=O)c1ccccc1[N+](=O)[O-])NN=C1CCCCCCC1 | -0.494
85 | O=C1OCCC1Sc1nc2ccccc2n1Cc1ccccc1 (stereo not given) | -1.37
86 | CCn1c(SCC(=O)N2CCCCC2)nnc1-c1ccc(S(=O)(=O)N2CCN(C)CC2)cc1 | -0.0299
87 | CCNC(=S)N/N=C1\C(=O)c2cccc3cccc1c23 | active: 12.9
88 | CCCCc1cc(=O)oc2cc(OCC(=O)N3CCc4ccccc43)ccc12 | -0.409

Row | Compound | z-score
89 | CCCC(=O)Nc1ccc(N2CCN(C(=O)c3cccs3)CC2)cc1 | 0.0313
90 | COc1ccc(OC)c(C2C(C(=O)O)c3ccccc3C(=O)N2C)c1 (stereo not given) | 0.356
91 | CCCc1cc(=O)[nH]c(SCC(=O)N(CC)Cc2ccccc2)n1 | -1
92 | CCOC(=O)C1=C(CN2CCc3ccccc32)NC(=O)NC1c1ccc(Cl)cc1 (stereo not given) | 0.26
93 | O=c1c2c(nc3cc(-c4ccccc4)[nH]n13)CCC2 | -0.413
94 | CC(=O)N(C)C1(c2nnnn2CCOC(=O)Nc2cccc3ccccc23)CCCC1 | 0.187
95 | C/C(=N\NC(=O)COc1ccc(C#N)cc1)c1ccccc1OC(F)F | 0.0716
96 | CCOC(=O)c1c(C)oc2c1c(C=NC1CCS(=O)(=O)C1)c(O)c1ccccc12 (stereo not given) | -0.323
97 | O=C(N/C=N/OCc1ccc(Cl)cc1Cl)NOCc1ncc(C(F)(F)F)cc1Cl | 0.75
98 | COC(=O)c1sccc1NC(=O)c1cc(C)on1 | -0.898
99 | Cc1ccc(S(=O)(=O)n2cnc3cc([N+](=O)[O-])ccc32)c(C)c1 | -0.00845
100 | N#CCCn1cc(/C=N/NC(=O)c2ccncc2)c(-c2ccc(F)cc2)n1 | -0.112
101 | CCCOc1cc(C)c(S(=O)(=O)n2nnc3ccccc32)cc1C | 0.195
102 | COc1ccc(-n2c(Cc3cccn3C)nnc2SCC(=O)Nc2ccc(C(C)=O)cc2)cc1 | -0.586
103 | O=C(O)CSc1nc(-c2ccccc2)cc(=O)[nH]1 | -0.00201
104 | C=CCSc1nccc(-c2nn(-c3ccc(C)cc3)ccc2=O)n1 | -0.168
105 | Fc1ccccc1CNCCC(Cc1ccccc1)c1ccc2c(c1)OCO2 (stereo not given) | 0.733
106 | O=C(OCCN1C(=O)c2cccc3c(N4CCOCC4)ccc(c23)C1=O)c1cccc(Cl)c1 | 2.81
107 | NCCN1CCN(CCN)CC1 | 0.79
108 | O=c1[nH]c(SCc2nc3ccccc3n2Cc2ccccc2)nc2ccccc12 | -0.408
109 | O=c1cc(CSc2nnc(-c3cccnc3)n2-c2ccccc2F)nc2sccn12 | 0.585
110 | Cc1cc(C)nc(N2CCCC(C(=O)NCC(c3ccccc3)c3ccccc3)C2)n1 (stereo not given) | 0.0177
